# This is one part of the list.
# B1: chr7:141450121:141450122:+_ENSG00000106028_ENST00000265304|hu_hu|FALSE|FALSE (ssRNA)
# RNA: GGGAGUUCUACAGUCCGACGAUCUCAUCCUUUCUACUCCUUCUCUUUCGUCUGGUCACUCAGAAAUAUAAUAUUAUCAGCUAUGAUUGUUGUUGCUUGUCGCCUCACAUUAUUUUUAUCCAUGUAUUCACCAUAGUCUAUUUUCAACAGAGGAUUGAGCAUCA
# B2: 70342072_70342192_62_3pUTR_ENSMUSG00000030465_ENSMUST00000120071|mouse|control|control (ssRNA)
# RNA: GGGAGUUCUACAGUCCGACGAUCAAUGCUGAAGGAACUCUGCCGCUUGUACUCCAGCAGCUCCAAGCAGCUCCUGAGCAGCUCUGAGAUCGAUCGCCUUAGCUUAGGAAGCACCAGGCUGCCUCCCCCAGCAUCUUCAACUACCAACAGAGGAUUGAGCAUCA
# B3: chr2:176857102:176857103:-_ENSG00000144320_ENST00000272748|hu_mus|FALSE|FALSE (ssRNA)
# RNA: GGGAGUUCUACAGUCCGACGAUCAGAAUAGAUAAUUAAUCUUCCAACCCAUAAUUUUUGCAAUCUCUGAUUUUUUUCUCUAAAUUCUUCCAAUGCUUGAAUUUCCUUAUCUAUAUUUUCUAGAACUUCUACUGUUGAAGGUUUCAACAGAGGAUUGAGCAUCA
# B4: chr1:220276048:220276049:+_ENSG00000067704_ENST00000302637|hu_hu|hu_hu_hu_mus_True|38_98 (ssRNA)
# RNA: GGGAGUUCUACAGUCCGACGAUCGCAAAUUGCCUGGUUGGCUGGAAUUGUCCAAGGCUGGGUGGUCCAAACUAAAACGCUAACAGGGGAUGAGGCAUCUAUAAGAGACUCCAACUUCGGAGGAGGUCUCAGGAGGGGGAAUCUCAACAGAGGAUUGAGCAUCA
# B5: 110106817_110108609_2615_CDS_ENSMUSG00000032481_ENSMUST00000088716|mouse|control|control (ssRNA)
# RNA: GGGAGUUCUACAGUCCGACGAUCAACGUUUCCUUCCGAAAUCUCGUGUUCCACUUUCUUCUUCCCGGCAUCGCUUUCUCUUUCUUUACAUGUAUCAGUGAGCUCUUUGUUCUCUUCAUUCUCCUUUUCUUCUGGCUUGACAUCCAACAGAGGAUUGAGCAUCA
# B6: chr1:66463027:66463028:+_ENSMUSG00000015222_ENSMUST00000114013|mus_mus|mus_mus_mus_hu_True|18_48 (ssRNA)
# RNA: GGGAGUUCUACAGUCCGACGAUCUUUUCUUUCAGGAGUGGAAAUUCUGCCUCUCCCGGUUUUAAAAGGCUUUUCUUUUCUAUGUUUCUCGAGAGACGAUCUCCGAGCUUCCUUUUCAGCUCUCUCCUCUUUAGGAAUAGUUUCCAACAGAGGAUUGAGCAUCA
# B7: 72332980_72347208_1028_CDS_ENSG00000157107_ENST00000430046|human|control|control (ssRNA)
# RNA: GGGAGUUCUACAGUCCGACGAUCACUGUAGCCUUCUUCAUCUACAUCAGGAAUGUUCAAUGAAUCUGCAUCAGGACAUUCCACAGAUUCUGCAUCUUUUUCCUUUUUAAUGAUUCCUGGCAAAGCAAAGGUCUUUCUUUUCCUCAACAGAGGAUUGAGCAUCA
# B8: chr2:152319639:152319640:+_ENSG00000080345_ENST00000243326|hu_hu|motif|central (ssRNA)
# RNA: GGGAGUUCUACAGUCCGACGAUCUUGCCUCCGACUUGUAGGGUAUGGGGGAGUUCCAGCAACAGUGGUAUUAGAAACUGAACGGCUGCUGACAACGAAAGAAUUUUCUGUACUAGAUGCACAUUCAGUUGAUGUUUUCCUUGACAACAGAGGAUUGAGCAUCA
# B9: chr6:86325054:86325055:-_ENSG00000135316_ENST00000355238|hu_mus|FALSE|FALSE (ssRNA)
# RNA: GGGAGUUCUACAGUCCGACGAUCUCCACGCCCUCGACCUCUUGUUGGGGGAGGCAUAUGAGGUGGACCAUAAUAGUAGUAAUCAUCAUACAUUUGAUUCUUUGCUGCUUGCCUCUGAGCUUUUCUUUCUUUCCUCUUCUGAUCCAACAGAGGAUUGAGCAUCA
# B10: 39923092_39923697_3682_CDS_ENSG00000183337_ENST00000397354|human|control|control (ssRNA)
# RNA: GGGAGUUCUACAGUCCGACGAUCAGGAUGGAGCCCUUUAGAGACUCGUCGGCGUUUGGCUUUCAGCAGAGGGUCCUCUGGCACCUCCUCCGCAGUGGUCUCAGUGUGGCUGCUGUCACCUGAGACUUUGCGUUUCCUGUCCACCAACAGAGGAUUGAGCAUCA
# B11: chr11:69480845:69480846:-_ENSMUSG00000059796_ENSMUST00000163666|mus_mus|FALSE|FALSE (ssRNA)
# RNA: GGGAGUUCUACAGUCCGACGAUCUUCCUUCUUUUUGCCUCAAAAAGUGACAUUUAUUCAUAGAGAAAAAAAACUGAAACAAAAAAAAAAAAAGCCAAAACAAAAACAAGAUGUCCAUCCCUUGGCUCCCUCCCCUCCCCCCUCCAACAGAGGAUUGAGCAUCA
# B12: 75306124_75306591_1986_CDS_ENSMUSG00000020850_ENSMUST00000102510|mouse|control|control (ssRNA)
# RNA: GGGAGUUCUACAGUCCGACGAUCAAGGUUGCCCAGCCAUCGCUCUAGCAGAGGGGUAAUUCCACGCAUAAAGAACAGCCAGACCCGCCAGCCAGCAGCCCAGAAACCACAGCCAGGGCCUUUCCCUACAGGACCCGUGUUGAACAACAGAGGAUUGAGCAUCA
# B13: chr1:39494564:39494565:+_ENSG00000168653_ENST00000372967|hu_hu|hu_hu_hu_mus_True|38_98 (ssRNA)
# RNA: GGGAGUUCUACAGUCCGACGAUCAUGCAUUCGCCUCAUCGUUUUCUACCGAAGCAAGCACUCUUCGAAGUCAUCGAACUCUAUCUUGCACUCCUUUUCUGCCCGAGUCCCACCGAUCCCGUGUGCACACUCUAUCCACUCUUUCAACAGAGGAUUGAGCAUCA
# B14: chr1:80268134:80268135:-_ENSMUSG00000004364_ENSMUST00000163119|mus_mus|FALSE|FALSE (ssRNA)
# RNA: GGGAGUUCUACAGUCCGACGAUCGACUCUGUGUAGUUUAGAUGUGAAUUGAUCAUUAACUGUAAAUAUGUGGCCACUUUCUAUCUCCUUGGACUUGGGUUCUUUUGUGAGGACCCGCUGUGUUGGUUUACCACAGGCGAGGGACAACAGAGGAUUGAGCAUCA
# B15: chr1:167535829:167535830:-_ENSMUSG00000026566_ENSMUST00000068705|mus_mus|FALSE|FALSE (ssRNA)
# RNA: GGGAGUUCUACAGUCCGACGAUCAGGAGGAUUUUUGACAUCGCAGAUAUAGGUGCCAUUGUGAACAGCCUGAAUAUUUUCUAUAUUGAUUGAUGCAUCUUUCUUGUCAAGGUCCCCAGCCCAGGUGACUCGGUCUUUAAAUGGCAACAGAGGAUUGAGCAUCA
# B16: chr1:84720644:84720645:-_ENSMUSG00000026219_ENSMUST00000027421|mus_mus|FALSE|FALSE (ssRNA)
# RNA: GGGAGUUCUACAGUCCGACGAUCAUGAAUUUUAGAUUGUAUCUCAAUUUGAAUGAACACAGGAUGACAAGGCCUGGGGCUAAUGAAACUGUACGUGUUGUAUUUAAAAAGUAAAACAAACAAACAAAAACCAAACACCAAACCCAACAGAGGAUUGAGCAUCA
# B17: chr22:41863543:41863544:-_ENSG00000100410_ENST00000216252|hu_hu|FALSE|FALSE (ssRNA)
# RNA: GGGAGUUCUACAGUCCGACGAUCGGCAUCAGAGACCCCAGGUCCUCCACAGAUCACACAGCGCCCCUGGUAAGAUCCAUAGUUACACUCAUCACAUAUGCGCACCAGAGUGCAGGGACGCACAUAGGAGUCACAAAUCACACACAACAGAGGAUUGAGCAUCA
# B18: 97009035_97009955_691_CDS_ENSG00000121152_ENST00000240423|human|control|control (ssRNA)
# RNA: GGGAGUUCUACAGUCCGACGAUCAUCUGCUUCGGAGACAUUGAGGUUGUUUAUGUUCUGCUCAAUAGUUCUGUGUAAGUGCUUCUUCUUUGGCUUUACAGCCUUUUUGGUUGUUCCCAUUUCAGUAGCACUUCCAUCAGCAACCAACAGAGGAUUGAGCAUCA
# B19: chr8:104447970:104447971:+_ENSG00000164934_ENST00000297579|hu_hu|hu_hu_hu_mus_False|8_18 (ssRNA)
# RNA: GGGAGUUCUACAGUCCGACGAUCAUACACUUCCCUGCUUCGGCUCUUGUCCACAGGAAAGAUUCUAAUAGACUUAUCAAAGCUGGCAGACACAAAUUCCUUCCCAGUGGGAGAGUAAUCCACAUCAAGCACUGCAGACACGUGCAACAGAGGAUUGAGCAUCA
# B20: chr1:45478652:45478653:+_ENSG00000126088_ENST00000246337|hu_mus|motif|central (ssRNA)
# RNA: GGGAGUUCUACAGUCCGACGAUCGCAAGCCUCGGGAGAUCGGCAGGUGCUGAAGAAGUCCUGGGCAGCCCUGGUUUCCCGGAACUCUGGUAAGUAGCGGCCUGCCUGUCUCAUGCACCAAACGGGAGUAUAGUCUGUUUCCUCCAACAGAGGAUUGAGCAUCA
# B21: chr2:216981417:216981418:+_ENSG00000079246_ENST00000392132|hu_hu|hu_hu_hu_mus_True|1_28 (ssRNA)
# RNA: GGGAGUUCUACAGUCCGACGAUCCUGAUACUGGUCCUUGCCAGCAAGGGCAUUAUCAGUGCCAUCUGUGCCAUAGAGGACUAACGCAAUCUCAUCUUUGCUCUCCGCAAACACCUGUCGUUGGACAAACAUAGUCAUCACCUUCAACAGAGGAUUGAGCAUCA
# B22: 154962739_154962859_931_3pUTR_ENSMUSG00000042751_ENSMUST00000043313|mouse|control|control (ssRNA)
# RNA: GGGAGUUCUACAGUCCGACGAUCGGUCUGACAGUGUGUUGGCAGAGGACACGGGGAGAAUAGAGCAGAGAGCUGGGUAUCCGCUAGCCCGAGGCGUUGAUGUACAGCUGACUCUUGAGGAUGUAAUCGAUGACUGGCUGGGACCAACAGAGGAUUGAGCAUCA
# Biological target: T1, UNK ZnF1-3 (human, UniProt Q9C0B0 31-174)
# T1 sequence: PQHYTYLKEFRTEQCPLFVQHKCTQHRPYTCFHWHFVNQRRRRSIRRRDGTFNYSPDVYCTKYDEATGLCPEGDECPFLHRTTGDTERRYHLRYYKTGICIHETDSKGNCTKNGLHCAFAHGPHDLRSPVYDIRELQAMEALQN
# Experiment: nsRBNS (natural sequence RNA bind-n-seq); RBNS binding buffer (assumed for nsRBNS): 25 mM Tris pH 7.5, 150 mM KCl, 3 mM MgCl2, 0.01% Triton X-100, 500 ug/ml BSA, 20 U/ml SUPERase-In, 4 C; UNK is unkempt and MSI1 is Musashi-1; names of the RNAs are library labels; protein concentration not given here; high values mean tight binding
row,Binder,binding signal [enrichment R]
1,B1,0.494
2,B2,0.706
3,B3,0.461
4,B4,1.58
5,B5,0.337
6,B6,0.388
7,B7,0.71
8,B8,0.861
9,B9,0.618
10,B10,1.16
11,B11,1.25
12,B12,1.81
13,B13,0.703
14,B14,0.658
15,B15,1.17
16,B16,1.63
17,B17,1.51
18,B18,0.243
19,B19,0.898
20,B20,0.825
21,B21,0.793
22,B22,1.86

# — publication PMC12136788
